Measured values published in US20100184677A1, “USE OF THE HUMAN PANCREATIC POLYPEPTIDE AS A THERAPEUTIC AGENT” (priority 2007, published 2010).

Test system: CEM-SS cells
Experiment: Cytotoxicity (MTS cell viability) in CEM-SS cells
Settings: peptide 10 micrograms per ml

Compound: Cc1cn([C@H]2C[C@H](N=[N+]=[N-])[C@@H](CO)O2)c(=O)[nH]c1=O [AZT]
- % Cell viability: 97%
